Results: PubChem BioAssay AID360 (National Center for Advancing Translational Sciences (NCATS), 2006)
Screen size: about 48,000 compounds; about 550 (1.1%) were called active. Another 4% or so got no clear call; they are omitted. Cut-off read from the data, not from the text of the source: active = potency below about 15 µM; inconclusive = mostly about 16 µM to 33 µM; inactive = weaker than that. The list shows a part of the results.

Target: Lysosomal acid glucosylceramidase (Homo sapiens) (UniProt P04062)
Assay: Glucocerebrosidase;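 note: the screen sought inhibitors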
Details: purified enzyme, resorufin glucoside fluorescence (screen aimed at inhibitors), 20 min
Method in brief: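 Normal human glucocerebrosidase (0.2 nM final) was assayed with resorufin β-D-glucopyranoside (30 uM final) in 50mM citric acid/KH2PO4, 10mM sodium taurocholate, 0.01% tween-20, pH 5.9. Compounds were titrated; fluorescence (Ex 548, Em 600) read after 20 min at RT.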
Potency is the fitted concentration of half-maximal effect.

Sequence of UniProt P04062 (P04062 whole entry, looked up): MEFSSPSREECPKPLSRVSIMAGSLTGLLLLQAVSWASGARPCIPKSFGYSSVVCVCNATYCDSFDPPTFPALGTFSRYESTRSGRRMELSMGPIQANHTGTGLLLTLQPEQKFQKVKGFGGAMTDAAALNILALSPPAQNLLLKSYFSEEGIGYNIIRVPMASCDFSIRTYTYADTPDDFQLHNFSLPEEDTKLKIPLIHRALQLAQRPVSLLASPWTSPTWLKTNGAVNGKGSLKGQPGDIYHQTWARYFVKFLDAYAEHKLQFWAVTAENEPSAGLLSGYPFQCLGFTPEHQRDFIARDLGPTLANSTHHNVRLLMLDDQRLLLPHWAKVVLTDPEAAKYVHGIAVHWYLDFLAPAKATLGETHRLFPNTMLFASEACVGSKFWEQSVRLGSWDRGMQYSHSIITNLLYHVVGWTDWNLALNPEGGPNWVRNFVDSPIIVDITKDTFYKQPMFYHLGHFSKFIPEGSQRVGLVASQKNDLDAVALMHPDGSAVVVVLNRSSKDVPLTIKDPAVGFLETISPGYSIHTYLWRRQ

Potency, inactive:
CC(C(=O)NCCC1=CCCCC1)N1C(=O)c2ccccc2C1=O (stereo unspecified) > 76.9 µM
N#Cc1ccc(NC(=O)CN2C(=O)NC(Cc3ccccc3)C2=O)cc1 (stereo unspecified) > 76.9 µM
CCCn1nnnc1SCC(=O)Nc1ccc(F)cc1 > 76.9 µM
CCC1(CC)C(=O)NC(=O)NC1=Nc1cccc(OC)c1 > 76.9 µM
Cc1ccc2c(NC(=O)C3CC3)cccc2n1 > 76.9 µM
Cc1cccc(N2CCN(C(c3cccs3)c3nnnn3C(C)(C)C)CC2)c1C (stereo unspecified) > 76.9 µM
Cc1nnc2sc(-c3ccc(NC(=O)c4ccc(-c5ccc(Br)cc5)o4)cc3)nn12 > 76.9 µM
O=C1CC(c2ccco2)Cc2nc(N3CCc4ccccc4C3)ncc21 (stereo unspecified) > 76.9 µM
COc1ccc(C(=O)C(c2ccccc2)N2CCOCC2)cc1 (stereo unspecified) > 76.9 µM
Cc1ccccc1CSCC(=O)NC(=O)NC(C)(C)C > 76.9 µM
CCn1cnc2sc(C(=O)O)c(C)c2c1=O > 76.9 µM
COc1ccc(OC)c(CC(NC(C)=O)C(=O)NC2CCN(c3nc(C)cc(C)c3C#N)CC2)c1 (stereo unspecified) > 76.9 µM
COc1ccc(CNC(=O)CN(C(=O)c2ccc(CN3CCOCC3)o2)C2CCCC2)cc1 > 76.9 µM
Cc1cccc(OCC(=O)N(Cc2cccs2)C2CCS(=O)(=O)C2)c1 (stereo unspecified) > 76.9 µM
O=C(c1ccc(COCC(F)(F)F)o1)N1CCCCCC1 > 76.9 µM
CS(=O)(=O)n1nc(C(=O)N2CCOCC2)nc1N > 76.9 µM
O=C(Cc1ccccc1)Nc1nonc1NC(=O)c1ccccc1 > 76.9 µM
COC(=O)c1cc(-c2ccc(OC)c(OC)c2)n[nH]1 > 76.9 µM
Cc1ccc(-n2c(N)c(C(N)=O)sc2=S)c(C)c1 > 76.9 µM
Cc1noc(C)c1COC(=O)c1ccc2c(c1)OCO2 > 76.9 µM
CCC(C)NC(=O)Cn1cccc1C(=O)c1ccccc1 (stereo unspecified) > 76.9 µM
O=C(CCNS(=O)(=O)c1cccc2nsnc12)NC1CCCc2ccccc21 (stereo unspecified) > 76.9 µM
C/C=C/Cn1c(N2CCCCCC2)nc2c1c(=O)[nH]c(=O)n2C > 76.9 µM
CCOC(=O)Cc1csc(NC(=O)c2ccc(C)o2)n1 > 76.9 µM
O=S(=O)(NCc1ccccc1)c1cccc2nonc12 > 76.9 µM
CCOC(=O)C1CCN(CC(=O)N2C(C)CCCC2C)CC1 (stereo unspecified) > 76.9 µM
N#Cc1nc(N)nc(N(c2ccccc2)c2ccccc2)n1 > 76.9 µM
CCOC(=O)c1cc(C)n(-c2c(C)n(C)n(-c3ccccc3)c2=O)c1C > 76.9 µM
CCOCCCNC(=O)C1CCN(S(=O)(=O)c2c(C)noc2/C=C\c2ccc(OC)cc2)CC1 > 76.9 µM
Cc1cc(NC(=O)c2sccc2C)n(-c2cccc(Cl)c2)n1 > 76.9 µM
Cc1cc(C)n(CC(O)COCc2ccccc2)n1 (stereo unspecified) > 76.9 µM
CC(C)Cn1c(=O)c2c(nc3n2CCCN3CCc2ccccc2)n(C)c1=O > 15.4 µM
CCOC(=O)N1CCC(NC(=O)CCc2cn(C)c3ccccc23)CC1 > 76.9 µM
C=CCn1c(N)c(C(=O)NCc2cccnc2)sc1=S > 76.9 µM
CCCCCn1c(S(=O)(=O)O)nc2ccccc21 > 76.9 µM
Cc1oc(-c2ccc3c(c2)OCCO3)cc1C(=O)O > 76.9 µM
COC(=O)C1=C(N)Oc2cc(C)n(CC3CCCO3)c(=O)c2C1c1ccccc1OC (stereo unspecified) > 76.9 µM
O=C(NC1CCCCC1)C(c1ccco1)N(Cc1cccs1)C(=O)Cn1nnc2ccccc21 (stereo unspecified) > 76.9 µM
Cc1ccc(CNC(=O)CCNS(=O)(=O)c2ccc3c(c2)c(=O)n(C)c(=O)n3C)cc1 > 76.9 µM
Cn1c(C(=O)NCC2CCCO2)cc2c(=O)n3ccccc3nc21 (stereo unspecified) > 76.9 µM
O=C(CNC(=O)c1ccc(Cl)cc1)NCCCn1ccnc1 > 76.9 µM
CCCn1nnnc1SCC(=O)c1ccc2c(c1)OCCO2 > 76.9 µM
CCN(C(=O)CSc1nnc(Cn2nnc3ccccc32)o1)c1nc(-c2ccccc2)cs1 > 76.9 µM
CN1CCN(C2=C(Cl)C(=O)N(CCc3ccccc3)C2=O)CC1
Cc1oc2c(CN3CCCC3)c(O)ccc2c(=O)c1-c1ccccc1 > 76.9 µM
CC(=O)NC1Sc2ccccc2N=C1c1ccccc1 (stereo unspecified) > 76.9 µM
N#Cc1ccccc1NC(=O)CSc1nccn1CCc1ccccc1 > 76.9 µM
CCCOC(=O)CSc1nnc(-c2ccc(Cl)cc2Cl)o1 > 76.9 µM
O=C(Nc1ccccc1C(=O)N1CCN(c2ccccc2)CC1)c1ccco1 > 76.9 µM
CCOC(=O)Cc1csc(NC(=O)C2C3C=CC(C3)C2C(=O)O)n1 (stereo unspecified) > 76.9 µM
Cc1ccc(S(=O)(=O)Cn2nnnc2CN(Cc2ccco2)Cc2cccs2)cc1 > 76.9 µM
COC(=O)C1C(=O)C2=C(CC1C)NC(=O)CC2c1ccccc1 (stereo unspecified) > 76.9 µM
COc1ccc(CCNC(=O)CC2Nc3ccccc3NC2=O)cc1OC (stereo unspecified) > 76.9 µM
N#Cc1ccccc1CSc1ccccn1 > 76.9 µM
CCOC(=O)N1CCN(C(=O)C2CCC(=O)N2C(C)C)CC1 (stereo unspecified) > 76.9 µM
COc1ccc(Cn2nnnc2C(c2cc3cccc(C)c3[nH]c2=O)N2CCOCC2)cc1 (stereo unspecified) > 76.9 µM
O=C(COC(=O)CCC(=O)c1ccc(F)cc1)Nc1ccc(N2CCOCC2)cc1 > 76.9 µM
O=C(O)Cn1cc(C(=O)c2ccco2)c2ccccc21 > 76.9 µM
CN1CCN(c2ccccc2NC(=O)c2cc(Br)ccc2Cl)CC1 > 76.9 µM
NS(=O)(=O)c1ccc(NC(=O)N[C@@H](Cc2ccccc2)C(=O)O)cc1 > 76.9 µM
COc1ccc(OC)c(NC(=O)C2CCN(S(=O)(=O)c3c(C)noc3C)CC2)c1 > 76.9 µM
O=C(Nc1ccccn1)c1c(O)c2cccc3c2n(c1=O)CCC3 > 76.9 µM
CC(=O)c1cc(C#N)c(SCC(=O)OC(C)C)nc1C > 76.9 µM
CC1(C)CC(=O)C2=C(C1)N(c1ccccc1)C(N)=C(C#N)C2c1cccnc1 (stereo unspecified) > 76.9 µM
CCOCCn1c(CN2CCN(c3ccc(OC)cc3)CC2)nc2c1c(=O)n(C)c(=O)n2C > 76.9 µM
O=c1c2ccccc2nc(SCc2nnc(-c3ccccc3)o2)n1-c1ccc(F)cc1F > 76.9 µM
Cc1ccc(NC(=O)NC(=O)N(c2ccccc2)S(C)(=O)=O)cc1 > 76.9 µM
O=C(CCCSc1nc2ccccc2[nH]1)NCc1ccco1 > 76.9 µM
O=C(Nc1c2c(nn1-c1ccc(F)cc1)CS(=O)(=O)C2)C12CC3CC(CC(C3)C1)C2 > 76.9 µM
COc1nc(OC)nc(N2CCC(C(=O)NCC3CCCCC3)CC2)n1 > 76.9 µM
CC1(C)CC(=O)c2cc(C(=O)NC3CCSC3=O)c(=O)n(-c3ccccc3)c2C1 (stereo unspecified) > 76.9 µM
CNC(=O)c1nnn(Cc2ccccc2)c1NC(=O)C(F)(F)F > 76.9 µM
O=C(CCCn1c(SCC(=O)NC2CCCC2)nc2ccccc2c1=O)NCC1CCCO1 (stereo unspecified) > 76.9 µM
C=CCN(c1ccc(C(=O)N2CCCC2)cc1)S(C)(=O)=O > 76.9 µM
[O-][N+]1=c2ccc(Nc3ccccc3)cc2=NC12CCCCC2 > 76.9 µM
CCN(CC(=O)N1CCCCCC1)S(=O)(=O)c1ccc(Cl)cc1 > 76.9 µM
CCCOP(=O)(c1ccc(N(C)C)cc1)C(O)c1ccccc1OC (stereo unspecified) > 76.9 µM
O=C(CCCN1C(=O)c2ccccc2C1=O)N1CCN(c2ccccn2)CC1 > 76.9 µM
COc1ccc(Cn2c(C)nc3oc4cc(OC)ccc4c(=O)c3c2=O)cc1 > 76.9 µM
COC(=O)c1ccccc1NC(=O)C1CCCCC1C(=O)O (stereo unspecified) > 76.9 µM
Cn1cccc1C(=O)OCC(=O)Nc1cc(C(C)(C)C)nn1-c1ccccc1 > 76.9 µM
COCc1c(Br)c(C)nc(OCC(=O)O)c1C#N > 76.9 µM
CCCn1nnc(NC(=O)c2cccc(OCC(C)C)c2)n1 > 76.9 µM
CCOc1ccc(-n2c(SCC(=O)Nc3ccc(OC)cc3OC)nc3c(c2=O)SCC3)cc1 > 76.9 µM
CCSc1nc2nc(C)cc(C)n2n1 > 76.9 µM
CN1c2ccccc2C(C)(C)C12CCCC(=O)N2 (stereo unspecified) > 76.9 µM
O=C(CN1C(=O)c2cccc3cccc1c23)N1CCN(c2cccc(Cl)c2)CC1 > 76.9 µM
O=S(=O)(c1ccc(F)cc1)N1CN(Cc2ccco2)c2nc3ccccc3nc21 > 76.9 µM
CCc1ccc(NC(=O)CCn2c(=O)oc3ccccc32)cc1 > 76.9 µM
CC1CN(c2nc3c(c(=O)n(C)c(=O)n3C)n2Cc2c(Cl)cccc2Cl)CC(C)O1 (stereo unspecified) > 76.9 µM
CCOC(=O)c1c(C)[nH]c(C(=O)CSc2nnnn2-c2ccc(C)cc2)c1C > 76.9 µM
